# Test results reported in PubChem BioAssay AID2675 (National Center for Advancing Translational Sciences (NCATS), 2010).
# About 100 (0.036%) of roughly 280,000 compounds were called active. The inconclusive results got no clear call from the source; some entries with a clear call stand among them for comparison. The call rests on the fitted dose curve; in most records, active means well fitted inhibition curve with a large enough effect in the signal ratio, with a control signal flat (not every such curve was filed as active); inconclusive means small, poorly fitted or top-dose-only effect, or effect the other way, or a change in a side signal; inactive means no such curve, though single readings can be large or run the other way; the % refers to the signal ratio. Where the call is inconclusive, the potency comes from a doubtful curve fit. “Side channel” marks fits to a control or component signal instead of the main read-out.
# Biological target: Muscleblind-like protein 1 (Homo sapiens) (UniProt Q9NR56)
# Assay: qHTS Assay for Inhibitors of MBNL1-poly(CUG) RNA binding
# Details: TR-FRET MBNL1-His/biotin-(CUG)12 binding, 665/545 ratio; activity change, negative = inhibition: at 57.5 µM (top of the series)
# In short: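 Ratiometric TR-FRET (665 over 545 nm, excitation 340 nm) tracks disruption of MBNL1-His/biotin-(CUG)12 complex after 60 min at room temperature, with compounds at 92 nM to 58 uM final.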
# On the % scale 0 is the no-effect control and ±100 the full control effect; potency means the concentration at half of the fitted maximal effect; tags describe the fitted curve by direction and shape or compound fluorescence and quenching.
# Sequence of UniProt Q9NR56 (Q9NR56 whole entry, looked up): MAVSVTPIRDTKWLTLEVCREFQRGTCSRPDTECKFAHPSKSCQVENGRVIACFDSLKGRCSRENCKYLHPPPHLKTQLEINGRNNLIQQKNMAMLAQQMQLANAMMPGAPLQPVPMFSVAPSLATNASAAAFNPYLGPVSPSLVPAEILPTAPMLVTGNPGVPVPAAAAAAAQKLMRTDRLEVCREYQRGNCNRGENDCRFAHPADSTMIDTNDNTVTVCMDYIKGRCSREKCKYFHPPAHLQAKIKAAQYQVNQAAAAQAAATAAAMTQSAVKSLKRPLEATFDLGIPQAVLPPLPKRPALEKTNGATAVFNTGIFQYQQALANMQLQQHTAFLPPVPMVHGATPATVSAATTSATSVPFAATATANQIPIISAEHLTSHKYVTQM
SMILES,Potency,"activity change, negative = inhibition"
CC1=Nc2cccc([N+](=O)[O-])c2NC(=O)C1,"inconclusive: 25.1 µM [quencher, side channel, partial curve]",
Cc1ccccc1NC(=O)/C=C/c1cccs1,"inconclusive: 14.1 µM [quencher, side channel, single point]",
Cc1ccc(C(c2nnnn2C2CCCCC2)N2CCc3ccccc32)cc1 (configuration not stated),"inconclusive: 0.112 µM [fluorescent, side channel, full curve]",
COc1ccc2nc(SCc3nc(N)nc(Nc4ccccc4)n3)[nH]c2c1,,inactive: 3.03%
O=S(=O)(O)c1cccc(N=Nc2c(O)ccc3ccccc23)c1,"inconclusive: 14.1 µM [quencher, side channel, partial curve]",
COc1cc(/C=C2\CCCc3c2nc2ccccc2c3C(=O)O)cc(Br)c1O,"inconclusive: 17.8 µM [quencher, side channel, partial curve]",
Cc1ccc(OCC(=O)c2cc(C)n(Cc3cccs3)c2C)c([N+](=O)[O-])n1,"inconclusive: 25.1 µM [quencher, side channel, single point]",
Cc1nn(C(=O)c2ccco2)c(C)c1Br,,inactive: 3.48%
O=C(Cc1ccccc1)NCc1ccc(F)cc1,"inconclusive: 0.1 µM [fluorescent, side channel, full curve, poor fit]",
O=C1C(=O)N(CCN2CCOCC2)C(c2ccccn2)/C1=C(/O)c1ccc(Cl)cc1 (configuration not stated),"inconclusive: 39.8 µM [quencher, single point]",
O=C(CCCN1C(=O)/C(=C\c2ccco2)SC1=S)Nc1ccc(O)cc1C(=O)O,,inactive: 5.78%
CC(=O)Nc1ccc(N2C(=O)CSC2c2cccc([N+](=O)[O-])c2)cc1 (configuration not stated),"inconclusive: 28.2 µM [quencher, side channel, partial curve]",
CCc1c(C)nc2ncnn2c1N1CCN(S(=O)(=O)c2ccc(OC)cc2)CC1,"inconclusive: 12.6 µM [quencher, side channel, partial curve]",
O=C(Nc1nccs1)c1ccc(Cl)cc1[N+](=O)[O-],"inconclusive: 12.6 µM [quencher, side channel, partial curve]",
NC(=O)c1cc2ccccc2o/c1=N/NC(=O)c1cccs1,"inconclusive: 15.8 µM [quencher, side channel, partial curve]",
CC(C)(C)c1nnc(NS(=O)(=O)c2ccc([N+](=O)[O-])cc2)s1,"inconclusive: 14.1 µM [quencher, partial curve]",
N#CC(C#N)=c1ccc2c(c1)N1C3=C(CCCC3)CC3CCCCC31N=2 (configuration not stated),,inactive: 7.34%
O=C(N/N=C/c1ccccc1O)/C(=C/c1ccccc1)CCO,"inconclusive: 0.1 µM [fluorescent, side channel, partial curve, poor fit]",
O=C(C[n+]1ccc(-c2nnc3n2CCC3)cc1)c1ccc(Cl)c(Cl)c1,"inconclusive: 11.2 µM [quencher, side channel, partial curve]",

SMILES,Potency,"activity change, negative = inhibition"
Cc1cccc(Cn2c(C)nc3ccc([N+](=O)[O-])cc3c2=O)c1,"inconclusive: 7.08 µM [quencher, side channel, partial curve]",
Cc1cc(C(=O)Nc2ccncc2)ccc1[N+](=O)[O-],"inconclusive: 15.8 µM [quencher, side channel, partial curve]",
CC1(OC(=O)C2CCCC2)C(=O)C=C2C=C(c3ccsc3)N(CCN3CCOCC3)C=C2C1=O (configuration not stated),"inconclusive: 7.08 µM [quencher, side channel, partial curve]",
O=C(CN1C(=O)c2cccc3cccc1c23)Nc1ccc(S(=O)(=O)N2CCOCC2)cc1,"inconclusive: 12.6 µM [quencher, side channel, partial curve]",
CC1(C)C(=O)Nc2ccccc2N1C(=O)c1ccc([N+](=O)[O-])cc1,"inconclusive: 3.55 µM [quencher, side channel, full curve]",
Cc1ccc(OCC(=O)Nc2ccc(S(=O)(=O)N3CCCCC3)cc2)c([N+](=O)[O-])n1,"inconclusive: 12.6 µM [quencher, side channel, partial curve]",
CCCCC(=O)N/N=C/c1ccc(-c2ccc([N+](=O)[O-])cc2)o1,"inconclusive: 6.31 µM [quencher, full curve]",
O=C(O)c1cc2nc(-c3ccccc3)cc(C(F)(F)F)n2n1,"inconclusive: 8.91 µM [quencher, side channel, partial curve]",
CS(=O)(=O)N1CCN(Cc2ccc([N+](=O)[O-])cc2)CC1,"inconclusive: 20 µM [quencher, side channel, partial curve]",
O=C1C(=O)N(Cc2cccnc2)C(c2ccccn2)/C1=C(/O)c1ccc(F)cc1 (configuration not stated),"inconclusive: 31.6 µM [quencher, side channel, single point]",
O=C1CN(C(=O)c2ccccc2[N+](=O)[O-])C(c2ccccc2)c2cc(Br)ccc2N1 (configuration not stated),"inconclusive: 14.1 µM [quencher, side channel, single point]",
Cc1c(Br)c(=O)oc2c(Br)c(O)ccc12,,inactive: 35.9%
COCCCNC(=O)c1cc2cc3cc(OC)ccc3nc2o1,"inconclusive: 12.6 µM [quencher, side channel, partial curve]",
O=C(CSc1ncn[nH]1)Nc1nsc(-c2ccccc2)n1,"inconclusive: 4.47 µM [quencher, side channel, full curve]",
NC(=O)Cc1ccc2c(c1)[nH]c1ccccc12,"inconclusive: 39.8 µM [fluorescent, single point]",
O=C(NNc1ccccc1[N+](=O)[O-])Nc1cccc(Cl)c1,"inconclusive: 39.8 µM [quencher, side channel, partial curve]",
COc1ccc(-c2cc(C(=O)Nc3c(C)n(C)n(-c4ccccc4)c3=O)c3ccccc3n2)cc1OC,"inconclusive: 28.2 µM [quencher, side channel, single point]",
CCOc1ccc(CCN2CN(CC)CNC2=S)cc1OCC,,inactive: -5.91%
